Reference: patent US20250163119A1, “COMPOUNDS FOR THE TREATMENT OF DIABETES OR OBESITY” (Eli Lilly and Company, priority 2023, published 2025)
At least one compound was matched to its structure with a doubt left. Some entries repeat one wording, which the source may state once for all of them. *1 amine or outer side, *2 acyl side, *3 side chain or, on linkers, in order; H or OH if unused. Where a SMILES comes first, the peptide text is derived from it. Side-chain parts run from the residue outwards. [ ]: non-standard residue; d: D form. The star is where a group is joined. C20 diacid = O=C(O)CCCCCCCCCCCCCCCCCCC(=O)*; γGlu = O=C(O)[C@H](CCC(=O)[*:2])N[*:1]; αMeL = CC(C)C[C@](C)(N)C(=O)O; AEEA = NCCOCCOCC(=O)O; Aib = CC(C)(N)C(=O)O

Assay: In vivo Diet Induced Obesity (DIO) model, chronic dose administration
Design: species or system C57BL6 mice
Settings: DIO mice; for Fat mass change / lean mass change: EchoMRI day 1 vs day 14; for body weight change: day 1 to day 14; for fasting blood glucose: day 15 after overnight fast
Excerpt: The DIO model represents a pre-diabetic state that is obese. These animals, although not diabetic, display insulin resistance, dyslipidemia, and hepatic steatosis, all characteristics of metabolic syndrome, after being placed on a high fat (60% Kcal from fat) diet for 12 weeks (Surwit R S et al., Diet-induced type II diabetes in C57BL/6J mice. Diabetes 37(9): 1163-7 (1988)). Assessment of body weight change from start of study, fat mass change from start of study, lean mass change from start of study, and fasting glucose or glucose change from vehicle in same study substantially as set forth below. In the case of SEQ ID NO:55 combined with SEQ ID NO:25, tibialis anterior muscle weight at the end of the study is also reported as a measure of effect on muscle weight.
Male C57BL6 mice 22-24 weeks old (on high fat diet since 6 weeks of age, Jackson Laboratories 3800050; Bar Harbor, ME) are housed 1 per cage and maintained on D12492 chow (60% lard high fat diet: Research diets New Brunswick NJ) for 2 weeks in the vivarium and on a normal light cycle prior to experiment start. Animals were randomized by body weight to treatment groups using block randomization. On day 1 of experiment animals and food were weighed and recorded. Animals were separated in to two equal groups and started on separate days (data combined) to simplify the logistics of the study. Animals are given a single subcutaneous injection (s.c.) of the indicated treatment in 40 mM Tris HCl pH8.0+50 mM D-mannitol+0.02% polysorbate 80 on days 1(start), 4, 7, 10, and 13 of experiment at a volume of 10 ml/kg. Vehicle control animals were injected with a similar volume of this solution. The solutions were kept in sterile capped vials stored at 4° C. for the duration of the study. Each treatment arm has an n of 5-6 mice per group.
From study day 1 to study day 14 the animals were weighed daily prior to dose administration. […] The animals were placed in a weigh pan and the balance is allowed to stabilize. The weight was recorded.
On Study Day 14, the animals were fasted overnight (approximately 16-18 hours) by placing them in a clean cage with a clean wire rack without food but allowed access to water, and on day 15 animals were subjected to fasting blood glucose measurement as follows; the tail of the animal was resected and a blood samples was collected and blood glucose was measured using an Accu-Chek Aviva glucose meter (Roche; Indianapolis, IN). Statistical significance ([…] vs. 0 dose; one way ANOVA Dunnett's post hoc) was calculated using GraphPad Prism software (La Jolla, Ca).
On study day 1 and study day 14 body composition was analyzed using Quantitative Nuclear Magnetic Resonance EchoMRI analyzer (EMR-166-s, EchoMRI; Houston Tx). After calibrating the analyzer with a known amount of canola oil, the animals were placed in the analyzer which measures fat and non-fat (lean) mass in grams. Change in mass is calculated by subtraction of […].
On study day 15, following tail bleed for blood glucose, animals were sacrificed by C02 asphyxiation and the right tibialis anterior muscle was dissected. Muscles were trimmed of fascia and tendons and weighted. Weight was recorded and, in the case of relative weight, Tibialis anterior weight in milligrams was divided by body weight in grams.
The data are represented as the arithmetic mean plus or minus the standard error of the mean (SEM). Tables 6-9 show ED 50s for the listed parameters as appropriate. ED 50 was calculated using the log(agonist) vs. response—Find ECanything function in GraphPad Prism software (La Jolla, Ca) with F=50 and the top fixed to vehicle mean.

[1] = 0.3 nmol/kg s.c. on days 1, 4, 7, 10, 13, mean
[2] = 1 nmol/kg s.c. on days 1, 4, 7, 10, 13, mean
[3] = 3 nmol/kg s.c. on days 1, 4, 7, 10, 13, mean
[4] = 10 nmol/kg s.c. on days 1, 4, 7, 10, 13, mean
[5] = 30 nmol/kg s.c. on days 1, 4, 7, 10, 13, mean
[6] = 100 nmol/kg s.c. on days 1, 4, 7, 10, 13, mean
[7] = 300 nmol/kg s.c. on days 1, 4, 7, 10, 13, mean
[8] = dose response 0.3-300 nmol/kg s.c., top fixed to vehicle mean

CC[C@H](C)[C@H](NC(C)=O)C(=O)N[C@H](C(=O)N[C@H](C(=O)N[C@@H](CO)C(=O)N[C@@](C)(CC(C)C)C(=O)N[C@@H](CC(=O)O)C(=O)N[C@@H](C(=O)N1CCC[C@H]1C(=O)N[C@H](C(=O)NCC(=O)N[C@@](C)(CC(C)C)C(=O)N[C@@H](CC(C)C)C(=O)N[C@@H](CCC(N)=O)C(=O)N[C@H](C(=O)N[C@@H](CCCCN)C(=O)N[C@@H](CC(C)C)C(=O)N[C@@H](CCC(=O)O)C(=O)N[C@@H](CCC(N)=O)C(=O)N[C@@H](CCC(=O)O)C(=O)N[C@@H](CCCNC(=N)N)C(=O)N[C@@H](C)C(=O)N[C@@H](CCC(=O)O)C(=O)N[C@@H](CCCCN)C(=O)N[C@@H](C)C(=O)N[C@@H](CCCNC(=N)N)C(=O)N[C@@H](CCC(N)=O)C(=O)N[C@@H](CCC(N)=O)C(=O)N[C@@H](C)C(=O)N[C@@H](CCCCNC(=O)COCCOCCNC(=O)COCCOCCNC(=O)CC[C@H](NC(=O)CCCCCCCCCCCCCCCCCCC(=O)O)C(=O)O)C(=O)N[C@@H](CCC(=O)O)C(=O)N[C@@H](CC(N)=O)C(=O)N[C@H](C(=O)N[C@@H](CCC(=O)O)C(=O)N[C@H](C(=O)N[C@@H](CC(C)C)C(=O)N[C@@H](C)C(=O)N[C@@H](CCC(N)=O)C(=O)N[C@H](C(N)=O)C(C)C)[C@@H](C)CC)[C@@H](C)O)[C@@H](C)CC)[C@@H](C)O)C(C)C)[C@@H](C)O)C(C)C [SEQ ID NO: 29, Ac-IVTS αMeL D (D-Val) PTG αMeL LQIKLEQERAEKARQ QAK((2-[2-(2-Amino-ethoxy)-ethoxy]-acetyl)2-γE-CO-(CH2)18-CO2H)ENTEILAQV-NH2] (Ac-IVTS[αMeL]D[dV]PTG[αMeL]LQIKLEQERAEKARQQAK([AEEA-AEEA-γGlu-C20 diacid])ENTEILAQV-NH2)
Fat mass change [1]: 1.09 g | lean mass change [1]: 0.43 g | body weight change [1]: 0.88 g | fasting blood glucose [1]: 111.7 mg/dL | Fat mass change [2]: -1.33 g | lean mass change [2]: 0.70 g | body weight change [2]: 0.30 g | fasting blood glucose [2]: 95.78 mg/dL | Fat mass change [3]: -2.40 g | lean mass change [3]: 1.76 g | body weight change [3]: -0.72 g | fasting blood glucose [3]: 91.67 mg/dL | Fat mass change [4]: -5.76 g | lean mass change [4]: 0.64 g | body weight change [4]: -5.43 g | fasting blood glucose [4]: 89.28 mg/dL | Fat mass change [5]: -5.86 g | lean mass change [5]: -0.80 g | body weight change [5]: -6.51 g | fasting blood glucose [5]: 92.61 mg/dL | Fat mass change [6]: -7.57 g | lean mass change [6]: -0.56 g | body weight change [6]: -8.12 g | fasting blood glucose [6]: 90.22 mg/dL | Fat mass change [7]: -9.29 g | lean mass change [7]: -1.30 g | body weight change [7]: -10.42 g | fasting blood glucose [7]: 84.67 mg/dL | ED 50 (nmol/kg) for body weight change [8]: 10.56 nmol/kg | ED 50 (nmol/kg) for fasting blood glucose [8]: 0.35 nmol/kg | ED 50 (nmol/kg) for fat mass change [8]: 6.62 nmol/kg | ED 50 (nmol/kg) for lean mass change [8]: Ambiguous | efficacy versus SEQ ID NO:54 for body weight change and fat mass change as measured by ED 50 (dose response experiments): improvement in efficacy over previous polypeptide SEQ ID NO:54

CC[C@H](C)[C@H](NC(C)=O)C(=O)N[C@H](C(=O)N[C@H](C(=O)N[C@@H](CO)C(=O)N[C@@](C)(CC(C)C)C(=O)N[C@@H](CC(=O)O)C(=O)N[C@@H](C(=O)N1CCC[C@H]1C(=O)N[C@H](C(=O)NC(C)(C)C(=O)N[C@@](C)(CC(C)C)C(=O)N[C@@H](CC(C)C)C(=O)N[C@@H](CCC(N)=O)C(=O)N[C@H](C(=O)N[C@@H](CCCCN)C(=O)N[C@@H](CC(C)C)C(=O)N[C@@H](CCC(=O)O)C(=O)N[C@@H](CCC(N)=O)C(=O)N[C@@H](CCC(=O)O)C(=O)N[C@@H](CCCNC(=N)N)C(=O)N[C@@H](C)C(=O)N[C@@H](CCC(=O)O)C(=O)N[C@@H](CCCCN)C(=O)N[C@@H](C)C(=O)N[C@@H](CCCNC(=N)N)C(=O)N[C@@H](CCC(N)=O)C(=O)N[C@@H](CCC(N)=O)C(=O)N[C@@H](C)C(=O)N[C@@H](CCCCNC(=O)COCCOCCNC(=O)COCCOCCNC(=O)CC[C@H](NC(=O)CCCCCCCCCCCCCCCCCCC(=O)O)C(=O)O)C(=O)N[C@@H](CCC(=O)O)C(=O)N[C@@H](CC(N)=O)C(=O)N[C@H](C(=O)N[C@@H](CCC(=O)O)C(=O)N[C@H](C(=O)N[C@@H](CC(C)C)C(=O)N[C@@H](C)C(=O)N[C@@H](CCC(N)=O)C(=O)N[C@H](C(N)=O)C(C)C)[C@@H](C)CC)[C@@H](C)O)[C@@H](C)CC)[C@@H](C)O)C(C)C)[C@@H](C)O)C(C)C [SEQ ID NO: 41, Ac-IVTS αMeL D (D-Val) PT Aib αMeL LQIKLEQERAEKARQQAK((2-[2-(2-Amino-ethoxy)-ethoxy]-acetyl)2-γE-CO-(CH2)18-CO2H)ENTEILAQV-NH2] (Ac-IVTS[αMeL]D[dV]PT[Aib][αMeL]LQIKLEQERAEKARQQAK([AEEA-AEEA-γGlu-C20 diacid])ENTEILAQV-NH2)
Fat mass change [5]: -6.59 g | lean mass change [5]: 0.40 g | body weight change [5]: -6.42 g | fasting blood glucose (% reduction from vehicle) (30 nmol/kg s.c. on days 1, 4, 7, 10, 13, day 15, vs vehicle in same study, mean): 42.83% | efficacy versus SEQ ID NO:54 for body weight change and fat mass change (single dose level of 30 nmol/kg): superiority in efficacy over previous polypeptide SEQ ID NO:54
